# Test results published in PubChem BioAssay (NCATS).
# The shares of active, inactive and inconclusive entries below differ from those in the screen. For some of these results: Potencies of inconclusive entries are left out as doubtful fits. The source made the active and inactive calls. Unless noted, calls follow the shape of the dose curve; as a rule, active = well fitted curve in the direction sought with a large enough effect; inconclusive = small, poorly fitted or top-dose-only effect, or another doubt; inactive = no such curve, though single readings can be large; an effect the other way counts as inactive or inconclusive.
# Assays:
# [1] = target: Ubiquitin carboxyl-terminal hydrolase 1 (Homo sapiens) (UniProt O94782); test: Inhibitors of USP1/UAF1: Pilot qHTS (AID 504865);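 also: rhodamine fluorescence freed from ubiquitin-rhodamine substrate followed over time; potency is read from the fitted curve at half-maximal effect; nearly all actives have a fitted effect of over 35% in size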
# Outline: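 1nM USP1/UAF1 + cpd, 15 min RT; start w/ Ub-Rho 150nM final; kinetic FL 480/540 nm, 6 reads q60 s. Buffer 50mM HEPES pH 7.8, 0.5mM EDTA, 1mM TCEP, 0.01% Tween-20, 0.1 mg/ml BSA.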
# [2] = qHTS Assay for Identifying Gametocytocidal Compounds (AID 743244);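 also: % is scaled to controls: 0 for no effect and ±100 for the full control effect; actives lower the fluorescent signal which means gametocytes are killed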; details: P. falciparum 3D7 stage III-V gametocytes, alamarBlue, 72 h; max response: hits give low values
# Outline: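 Late gametocytes (III–V), P. falciparum 3D7; 72 h drug, then 24 h alamarBlue; resazurin reduction read by fluorescence.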
# [3] = qHTS of pediatric cancer cell lines to identify multiple opportunities for drug repurposing: Primary screen for SK-N-SH cells (AID 1347098); also: potency is read from the fitted curve at half-maximal effect; nearly all actives have a fitted effect of over 65% in size
# Outline: (§1)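 Cells (500-1,000/well) rested 5 h, then received compounds for 48 h; metabolically active cells were measured by CellTiter-Glo luminescence. Final concentrations spanned up to 46 µM (MIPE, 11-point) or 0.59 nM-46 µM (NPC, 8-point) in primary screens, 11-point in follow-ups.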
# [4] = qHTS of pediatric cancer cell lines to identify multiple opportunities for drug repurposing: Primary screen for NB1643 cells (AID 1347099);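 also: plate controls were DMSO neutral control for no effect and bortezomib positive control for full effect; nearly all actives have a fitted effect of over 50% in size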
# Outline: (§2)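 Cells seeded at 500-1,000 cells/well in growth media, rested 5 hours at 37 degrees C, 5% CO2, then dosed; MIPE compounds at 11-point (from 0.78 nM) and NPC at 8-point (from 0.59 nM) final concentrations. Viability by CellTiter-Glo luminescence after 48 hours.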
# CP297 = test: qHTS profiling for inhibitors of Plasmodium falciparum proliferation (AID 504749);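 also: 0% = DMSO vehicle and full inhibition = artemisinin control; nearly all actives have a fitted effect of over 60% in size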; details: P. falciparum in erythrocytes, SYBR Green DNA, 72 h; activity, negative = inhibition: at 28.7 µM (top of the series) unless noted
# Outline: (§3)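 Parasite proliferation within erythrocytes, 72 h exposure. Endpoint: SYBR Green I fluorescence after overnight lysis at room temperature. Controls: 0.29 uM artemisinin, DMSO.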
# DIV30 = test: as above; details: P. falciparum in erythrocytes, SYBR Green DNA, 72 h; series mostly up to 28.7 µM
# Outline: as §3
# ICS = test: as above; details: P. falciparum in erythrocytes, SYBR Green DNA, 72 h; series mostly up to 28.7 µM
# Outline: as §3
# TAB113 = test: as above; details: P. falciparum in erythrocytes, SYBR Green DNA, 72 h; series mostly up to 28.7 µM
# Outline: as §3
# [5] = P-glycoprotein substrates identified in KB-3-1 adenocarcinoma cell line, qHTS therapeutic library screen (AID 1346986); also: nearly all actives have a fitted effect of over 60% in size
# Outline: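 Resistance attributable to P-gp was assessed by comparing AC50 in KB-8-5-11 with parental KB-3-1 and by tariquidar reversal. Cells were exposed 72 h and viability read by CellTiter-Glo.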
# [6] = NS1 protein of Zika virus - qHTS assay to identify small molecule inhibitors in human HEK 293 cells (AID 1347053);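 also: plate controls were infected untreated cells for no effect and uninfected cells for full effect; nearly all actives have a fitted effect of over 55% in size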
# Outline: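 HEK 293 cells, seeded 20 h at 37 C, were pretreated with compound 1 h, then infected with ZIKV MR766 (MOI = 0.5) for 24 h. NS1 was read by TR-FRET with two anti-NS1 antibodies, normalized to uninfected and infected wells.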
# [7] = qHTS of pediatric cancer cell lines to identify multiple opportunities for drug repurposing: Primary screen for BT-12 cells (AID 1347101);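 also: plate controls were DMSO for no effect and bortezomib positive control for full effect; nearly all actives have a fitted effect of over 25% in size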
# Outline: as §1
# [8] = qHTS of pediatric cancer cell lines to identify multiple opportunities for drug repurposing: Primary screen for RD cells (AID 1347104); details: RD rhabdomyosarcoma viability, CellTiter-Glo luminescence, 48 h; activity change, negative = cytotoxic: at 46 µM (top of the series); also: potency is read from the fitted curve at half-maximal effect; nearly all actives have a fitted effect of over 55% in size
# Outline: as §2
# [9] = qHTS of pediatric cancer cell lines to identify multiple opportunities for drug repurposing: Primary screen for NB-EBc1 cells (AID 1347095);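 also: plate controls were DMSO neutral control for no effect and bortezomib for full effect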
# Outline: as §2
# [10] = qHTS of pediatric cancer cell lines to identify multiple opportunities for drug repurposing: Primary screen for Saos-2 cells (AID 1347097); also: % is scaled to controls: 0 for no effect and ±100 for the full control effect; nearly all actives have a fitted effect of over 40% in size
# Outline: as §2
# [11] = qHTS of pediatric cancer cell lines to identify multiple opportunities for drug repurposing: Primary screen for control Hh wild type fibroblast cells (AID 1347106);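 also: % is scaled to controls: 0 for no effect and ±100 for the full control effect; a drop in luminescence marks cytotoxicity and a rise apparent proliferation; nearly all actives have a fitted effect of over 55% in size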
# Outline: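 Viability after 48 h compound treatment at 37C, 500-1,000 cells/well, read as ATP luminescence with CellTiter-Glo. Primary screens used 11-point (MIPE, 0.78 nM-46 µM) or 8-point (NPC, 0.59 nM-46 µM) final concentrations; follow-up screens used 11-point dilutions.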
# [12] = qHTS of pediatric cancer cell lines to identify multiple opportunities for drug repurposing: Primary screen for Rh30 cells (AID 1347107); also: % is scaled to controls: 0 for no effect and ±100 for the full control effect; nearly all actives have a fitted effect of over 75% in size
# Outline: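 Cells (500-1,000/well) in growth media were settled 5 h at 37 degrees C, then given compounds for 48 h. Viability was read as CellTiter-Glo luminescence. Primary runs used MIPE at 11 points (0.78 nM-46 µM) and NPC at 8 points (0.59 nM-46 µM); follow-ups used 11 points.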
# [13] = test system: Zika virus NS2B-NS3 protease; test: Primary screen GU AMC qHTS for Zika virus inhibitors (AID 1347154);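 also: 0% = no-inhibitor control and -100% = no-enzyme control; nearly all actives have a fitted effect of over 70% in size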
# Outline: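 Unlinked Zika NS2B hydrophilic domain/NS3 protease domain noncovalent complex (25 nM final) in 10 mM Tris-HCl pH 8.0, 0.01% Tween 20, with AMC peptide substrate. Fluorescence (ex 340, em 450 nm) change over 15 min, room temperature; percent inhibition fitted to 4-parameter Hill equation.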
# [14] = NCATS anti-infectives library activity on HEK293 viability as a counter-qHTS vs the C. elegans viability qHTS (AID 1745854);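 also: HEK293 cells exposed to compounds for 24 hr before the viability read; % is scaled to controls: 0 for no effect and ±100 for the full control effect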
# Outline: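 HEK293 cells (1,500/well) exposed 24 hr at 37C to 1:5 titrations, up to 41.7 uM final; counter-screen to a C. elegans viability qHTS. Viability by CellTiter-Glo luminescence after 10 min at room temperature; digitonin as control.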
# Furin (Homo sapiens) = Furin (Homo sapiens) (UniProt P09958); test: Furin counterscreen qHTS for Zika virus inhibitors (AID 1347149); details: furin enzymatic counterscreen, fluorogenic substrate; activity change, negative = inhibition: at 57.5 µM (top of the series); also: potency is read from the fitted curve at half-maximal effect; nearly all actives have a fitted effect of over 70% in size
# Outline: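 Fluorogenic cleavage of BOC-RVRR-AMC (2 microM final, Km ~15 µM) was monitored (ex 340, em 450 nm) at 37C after 15 min RT preincubation of 5 nM furin with compounds in HEPES pH 7.0 buffer with CaCl2 and Triton X-100. Percent inhibition was fitted to a 4-parameter Hill curve.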
# [15] = test system: Zika virus NS2B-NS3 protease (linked construct); test: Confirmatory screen NINDS AMC qHTS for Zika virus inhibitors (AID 1347152); also: potency is read from the fitted curve at half-maximal effect; nearly all actives have a fitted effect of over 70% in size
# Outline: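 Linked NS2B-NS3 1 nM, Tris pH 8.0/0.01% Tween 20; cpd 15 min RT dark; + Nle-KRR-AMC 10 µM (Km 18.3 µM); read 0 and 15 min, 340/450 nm; %inh vs controls, 4-param Hill.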
# [16] = test system: Zika virus NS2B-NS3 protease (unlinked complex); test: Confirmatory screen GU AMC qHTS for Zika virus inhibitors (AID 1347153);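 also: enzyme at 25 nM with substrate at 10 µM below its Km of 18.3 µM; potency is read from the fitted curve at half-maximal effect; nearly all actives have a fitted effect of over 70% in size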
# Outline: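 Noncovalent NS2B hydrophilic domain/NS3 protease complex (25 nM) in 10 mM Tris-HCl pH 8.0, 0.01% Tween 20 was preincubated 15 min at room temperature with compounds. Then 10 µM AMC substrate (Km 18.3 µM) was added; fluorescence was read over 15 min and fitted to a 4-parameter Hill equation.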
# [17] = Vero cells viability qHTS for Zika virus inhibitors (AID 1347167); also: % is scaled to controls: 0 for no effect and ±100 for the full control effect
# Outline: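 Counter-screen for cytotoxicity of hits from NS2B-NS3 protease qHTS. Overnight-attached cells (2.5 x 10^5 cells/mL, DMEM/4% FBS) were dosed in titration, incubated 24 to 48 hours, then assayed by CellTiter Glo.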
# [18] = target: Cytochrome P450 3A4 (Homo sapiens) (UniProt P08684); test: Cytochrome P450 family 3 subfamily A member 4 (CYP3A4) small molecule antagonists: luciferase qHTS assay (AID 1645841; active = well fitted curve in the direction sought with a large enough effect in the repeat runs; inconclusive = weak or mixed curves; inactive = no such curve, though single readings can be large; an effect the other way counts as inactive or inconclusive; also: potency is read from the fitted curve at half-maximal effect; nearly all actives have a fitted effect of over 45% in size)
# Outline: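 P450-Glo CYP3A4 enzyme with proluciferin substrate was preincubated with DMSO-dissolved compounds for 10 min at room temperature. NADPH regeneration solution started a 1 h reaction. Detection reagent stopped it, and luminescence was read after 20 min.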
# JEG-3 = test: Primary qHTS to identify gynecologic anti-cancer compounds using libraries of approved drugs and bioactive compounds (AID 1345084); details: Gynecologic cancer cell panel viability, ATPlite luminescence, 48 h; series mostly up to 57.5 µM; also: % is scaled to controls: 0 for no effect and ±100 for the full control effect; nearly all actives have a fitted effect of over 55% in size
# Outline: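 In this quantitative HTS, cell killing is estimated from loss of ATP-dependent luciferase light. Cells see five compound concentrations over a 48 h exposure.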
# Tags tell the direction and shape of the fitted curve.
# Chain of UniProt P09958 (P09958 whole entry, looked up): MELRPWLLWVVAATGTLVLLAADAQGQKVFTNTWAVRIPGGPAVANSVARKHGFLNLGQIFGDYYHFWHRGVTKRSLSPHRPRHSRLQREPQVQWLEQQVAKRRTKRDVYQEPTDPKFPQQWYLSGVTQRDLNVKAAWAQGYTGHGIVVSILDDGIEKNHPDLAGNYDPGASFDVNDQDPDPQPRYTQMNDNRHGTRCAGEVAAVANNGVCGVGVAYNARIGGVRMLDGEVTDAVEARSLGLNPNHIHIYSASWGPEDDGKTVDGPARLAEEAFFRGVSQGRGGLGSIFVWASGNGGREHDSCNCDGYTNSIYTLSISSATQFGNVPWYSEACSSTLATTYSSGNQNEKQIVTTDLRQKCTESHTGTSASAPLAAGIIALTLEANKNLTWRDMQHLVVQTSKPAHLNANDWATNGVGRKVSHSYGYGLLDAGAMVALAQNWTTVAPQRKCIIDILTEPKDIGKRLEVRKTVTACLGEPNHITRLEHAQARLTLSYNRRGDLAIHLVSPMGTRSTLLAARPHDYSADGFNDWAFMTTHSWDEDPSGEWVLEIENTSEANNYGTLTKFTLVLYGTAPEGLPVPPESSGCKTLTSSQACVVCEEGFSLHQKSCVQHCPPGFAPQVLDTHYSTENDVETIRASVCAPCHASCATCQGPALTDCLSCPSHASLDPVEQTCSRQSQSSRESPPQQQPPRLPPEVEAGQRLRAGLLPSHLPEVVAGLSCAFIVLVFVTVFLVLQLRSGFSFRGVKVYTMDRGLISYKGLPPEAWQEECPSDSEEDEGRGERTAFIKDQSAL
# Chain of UniProt O94782 (O94782 whole entry, looked up): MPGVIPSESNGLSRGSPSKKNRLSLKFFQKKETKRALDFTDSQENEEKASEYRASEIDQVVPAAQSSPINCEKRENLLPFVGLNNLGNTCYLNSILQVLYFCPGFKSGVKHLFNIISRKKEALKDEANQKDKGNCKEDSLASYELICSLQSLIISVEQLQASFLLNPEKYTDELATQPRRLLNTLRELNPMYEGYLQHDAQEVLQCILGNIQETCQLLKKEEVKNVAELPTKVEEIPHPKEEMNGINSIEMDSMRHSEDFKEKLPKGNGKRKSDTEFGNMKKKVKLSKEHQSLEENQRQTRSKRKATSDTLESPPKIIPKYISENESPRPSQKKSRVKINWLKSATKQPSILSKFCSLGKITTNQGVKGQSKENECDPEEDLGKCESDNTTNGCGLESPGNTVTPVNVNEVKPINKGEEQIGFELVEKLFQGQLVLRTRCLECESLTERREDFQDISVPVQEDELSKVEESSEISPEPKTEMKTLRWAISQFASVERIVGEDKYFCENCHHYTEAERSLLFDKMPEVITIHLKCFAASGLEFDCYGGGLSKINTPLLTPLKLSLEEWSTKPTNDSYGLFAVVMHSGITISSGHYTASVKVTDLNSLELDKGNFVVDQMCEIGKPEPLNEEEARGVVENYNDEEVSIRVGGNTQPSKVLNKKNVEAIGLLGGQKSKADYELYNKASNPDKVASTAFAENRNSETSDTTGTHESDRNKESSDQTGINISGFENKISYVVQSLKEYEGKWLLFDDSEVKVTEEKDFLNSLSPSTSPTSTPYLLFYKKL
# Chain of UniProt P08684 (P08684 whole entry, looked up): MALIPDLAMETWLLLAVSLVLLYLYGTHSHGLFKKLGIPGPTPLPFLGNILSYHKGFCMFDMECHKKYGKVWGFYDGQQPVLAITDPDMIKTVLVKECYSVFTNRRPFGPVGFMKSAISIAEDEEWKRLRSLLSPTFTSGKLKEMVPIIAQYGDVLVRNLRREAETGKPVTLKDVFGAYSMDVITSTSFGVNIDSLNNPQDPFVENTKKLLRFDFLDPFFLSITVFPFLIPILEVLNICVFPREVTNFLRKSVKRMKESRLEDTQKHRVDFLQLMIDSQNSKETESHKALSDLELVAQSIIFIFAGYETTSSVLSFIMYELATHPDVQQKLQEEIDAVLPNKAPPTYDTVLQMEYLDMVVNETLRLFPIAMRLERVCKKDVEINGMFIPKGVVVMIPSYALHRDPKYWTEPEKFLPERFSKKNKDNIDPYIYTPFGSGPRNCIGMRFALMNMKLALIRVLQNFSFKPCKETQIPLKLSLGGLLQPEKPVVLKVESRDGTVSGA
structure (smiles),measurement,setting,value
C[C@@H](O)[C@H]1C(=O)N2C(C(=O)O)=C(S[C@@H]3CN[C@H](CNS(N)(=O)=O)C3)[C@H](C)[C@H]12,Potency,[1],"inconclusive [inhibitor, partial curve, poor fit]"
same,max response,[2],inactive: 13.8%
same,Potency,[3],"inconclusive [cytotoxic, full curve, poor fit]"
same,Potency,[4],inactive
same,Potency,CP297,inactive
same,Potency,DIV30,inactive
same,Potency,ICS,inactive
same,Potency,TAB113,inactive
CO[C@H]1O[C@@H]2O[C@@]3(C)CCC4[C@H](C)CCC([C@H]1C)[C@]42OO3 (stereo not given in full),Potency,[5],inactive
Cc1ccc(Cl)c(OCC(O)CNC(C)(C)C)c1 (stereo not given),Potency,[6],inactive
same,Potency,[7],inactive
same,Potency,[8],"inconclusive [cytotoxic, partial curve, poor fit]"
CC(C)(C)c1ccc(C(=O)CCCCl)cc1,Potency,[9],inactive
same,Potency,[10],inactive
same,Potency,[4],inactive
CC(=O)O[C@]1(C(C)=O)CC[C@H]2[C@@H]3C=C(C)C4=CC(=O)CC[C@]4(C)[C@H]3CC[C@@]21C,Potency,[11],inactive
same,Potency,[12],inactive
same,Potency,[13],inactive
same,Potency,[14],inactive
CC(C)c1cc2c(c(O)c1O[C@@H]1O[C@H](CO)[C@@H](O)[C@H](O)[C@H]1O)CC1(O)CCC(O)C(C)(C)C1CC2 (stereo not given in full),Potency,Furin (Homo sapiens),"inconclusive [inhibitor, partial curve, poor fit]"
same,Potency,[15],"inconclusive [inhibitor, single point]"
same,Potency,[16],"inconclusive [inhibitor, partial curve]"
same,Potency,[17],inactive
CN(C)C(=O)Nc1cccc(-c2ccc(N(C)C)cc2)c1,Potency,[18],"inconclusive [falling, single point]"
CC(=O)O[C@@]1(C)[C@@H]2CC(=C(C)C)C(=O)C[C@@]2(C)CC[C@H]1OC(=O)C1(C)OC1C (stereo not given in full),Potency,JEG-3,inactive
